Assay [1] deals with T1, RNA helicase UPF1 (endogenous) (human (endogenous in 293T, Jurkat, C8166, C91PL, HUT102)) (UniProt Q92900).
T1 sequence: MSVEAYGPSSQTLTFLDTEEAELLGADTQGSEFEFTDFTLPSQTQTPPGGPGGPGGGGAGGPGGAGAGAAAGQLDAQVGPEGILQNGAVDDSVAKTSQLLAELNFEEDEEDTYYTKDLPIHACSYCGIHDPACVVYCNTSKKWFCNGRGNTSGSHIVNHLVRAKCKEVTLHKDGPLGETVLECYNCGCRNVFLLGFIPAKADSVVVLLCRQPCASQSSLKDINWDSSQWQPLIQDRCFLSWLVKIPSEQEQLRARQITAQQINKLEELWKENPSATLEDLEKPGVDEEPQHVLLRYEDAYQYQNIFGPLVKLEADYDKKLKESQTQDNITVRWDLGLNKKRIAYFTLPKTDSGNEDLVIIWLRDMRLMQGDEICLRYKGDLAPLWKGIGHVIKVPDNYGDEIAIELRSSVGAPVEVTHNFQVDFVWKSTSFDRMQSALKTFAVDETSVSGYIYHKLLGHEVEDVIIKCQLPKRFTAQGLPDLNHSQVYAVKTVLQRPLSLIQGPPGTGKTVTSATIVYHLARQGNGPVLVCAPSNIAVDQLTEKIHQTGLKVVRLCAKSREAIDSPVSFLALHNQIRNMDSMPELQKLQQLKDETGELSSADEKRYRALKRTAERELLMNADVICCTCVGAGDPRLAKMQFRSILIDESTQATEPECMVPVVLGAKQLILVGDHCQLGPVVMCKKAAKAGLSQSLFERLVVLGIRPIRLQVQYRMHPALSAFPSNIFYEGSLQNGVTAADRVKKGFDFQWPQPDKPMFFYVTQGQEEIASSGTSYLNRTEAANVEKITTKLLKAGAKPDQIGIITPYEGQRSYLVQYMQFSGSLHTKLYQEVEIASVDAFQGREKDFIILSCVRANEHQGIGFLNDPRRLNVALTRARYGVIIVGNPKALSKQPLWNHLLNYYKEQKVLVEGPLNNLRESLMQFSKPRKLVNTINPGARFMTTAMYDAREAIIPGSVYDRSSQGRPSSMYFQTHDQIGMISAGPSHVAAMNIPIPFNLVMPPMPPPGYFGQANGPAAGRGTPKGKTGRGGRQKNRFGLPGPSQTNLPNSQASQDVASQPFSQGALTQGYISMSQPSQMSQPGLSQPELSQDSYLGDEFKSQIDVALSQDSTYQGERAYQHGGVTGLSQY
Nature of the assay: co-IP; 293T extracts, cells expressing Rex (WT, NES or NLS mutant) with or without an RxRE containing RNA; IP with rabbit polyclonal anti-UPF1; with or without RNAse A (0.1 mg/ml, 30 min); western blot.

Sequences of proteins named here, by UniProt entry; tags and fusion partners are left off.
UniProt Q9HAU5: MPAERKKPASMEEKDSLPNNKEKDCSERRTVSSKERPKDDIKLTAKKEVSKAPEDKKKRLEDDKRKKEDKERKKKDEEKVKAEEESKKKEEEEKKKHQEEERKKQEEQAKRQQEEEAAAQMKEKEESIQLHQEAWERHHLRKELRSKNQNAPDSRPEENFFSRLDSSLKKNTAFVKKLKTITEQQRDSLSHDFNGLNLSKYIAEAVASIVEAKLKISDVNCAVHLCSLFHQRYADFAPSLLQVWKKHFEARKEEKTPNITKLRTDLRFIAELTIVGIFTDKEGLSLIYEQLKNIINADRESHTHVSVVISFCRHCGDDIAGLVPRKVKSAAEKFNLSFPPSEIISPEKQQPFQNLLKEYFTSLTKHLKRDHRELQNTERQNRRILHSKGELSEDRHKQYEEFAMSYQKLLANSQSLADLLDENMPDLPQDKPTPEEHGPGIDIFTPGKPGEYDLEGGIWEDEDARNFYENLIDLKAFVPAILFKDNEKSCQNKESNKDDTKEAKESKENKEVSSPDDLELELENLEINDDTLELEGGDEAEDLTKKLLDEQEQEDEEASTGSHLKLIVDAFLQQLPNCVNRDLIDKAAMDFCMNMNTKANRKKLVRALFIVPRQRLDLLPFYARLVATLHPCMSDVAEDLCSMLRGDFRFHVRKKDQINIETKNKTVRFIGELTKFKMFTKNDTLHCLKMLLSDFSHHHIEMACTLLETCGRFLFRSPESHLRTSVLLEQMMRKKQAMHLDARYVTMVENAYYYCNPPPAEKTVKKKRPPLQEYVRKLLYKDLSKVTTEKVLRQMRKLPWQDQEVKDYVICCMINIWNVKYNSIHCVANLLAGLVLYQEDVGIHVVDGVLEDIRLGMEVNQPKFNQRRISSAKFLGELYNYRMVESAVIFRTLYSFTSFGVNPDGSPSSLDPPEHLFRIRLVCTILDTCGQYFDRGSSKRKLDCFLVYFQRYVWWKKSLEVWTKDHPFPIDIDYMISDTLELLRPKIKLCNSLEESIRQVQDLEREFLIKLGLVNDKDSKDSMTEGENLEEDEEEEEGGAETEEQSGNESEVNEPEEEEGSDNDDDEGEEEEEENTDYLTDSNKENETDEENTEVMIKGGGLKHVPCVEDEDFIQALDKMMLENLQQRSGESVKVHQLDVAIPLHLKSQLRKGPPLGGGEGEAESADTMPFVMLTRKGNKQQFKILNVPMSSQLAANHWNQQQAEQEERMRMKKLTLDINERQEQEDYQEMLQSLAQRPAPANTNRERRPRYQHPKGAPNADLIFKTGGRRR
UniProt P63241: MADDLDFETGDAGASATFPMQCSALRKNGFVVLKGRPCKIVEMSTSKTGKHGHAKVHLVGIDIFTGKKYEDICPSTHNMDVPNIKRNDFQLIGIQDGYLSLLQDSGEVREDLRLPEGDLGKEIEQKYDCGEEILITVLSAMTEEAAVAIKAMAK
UniProt O14980: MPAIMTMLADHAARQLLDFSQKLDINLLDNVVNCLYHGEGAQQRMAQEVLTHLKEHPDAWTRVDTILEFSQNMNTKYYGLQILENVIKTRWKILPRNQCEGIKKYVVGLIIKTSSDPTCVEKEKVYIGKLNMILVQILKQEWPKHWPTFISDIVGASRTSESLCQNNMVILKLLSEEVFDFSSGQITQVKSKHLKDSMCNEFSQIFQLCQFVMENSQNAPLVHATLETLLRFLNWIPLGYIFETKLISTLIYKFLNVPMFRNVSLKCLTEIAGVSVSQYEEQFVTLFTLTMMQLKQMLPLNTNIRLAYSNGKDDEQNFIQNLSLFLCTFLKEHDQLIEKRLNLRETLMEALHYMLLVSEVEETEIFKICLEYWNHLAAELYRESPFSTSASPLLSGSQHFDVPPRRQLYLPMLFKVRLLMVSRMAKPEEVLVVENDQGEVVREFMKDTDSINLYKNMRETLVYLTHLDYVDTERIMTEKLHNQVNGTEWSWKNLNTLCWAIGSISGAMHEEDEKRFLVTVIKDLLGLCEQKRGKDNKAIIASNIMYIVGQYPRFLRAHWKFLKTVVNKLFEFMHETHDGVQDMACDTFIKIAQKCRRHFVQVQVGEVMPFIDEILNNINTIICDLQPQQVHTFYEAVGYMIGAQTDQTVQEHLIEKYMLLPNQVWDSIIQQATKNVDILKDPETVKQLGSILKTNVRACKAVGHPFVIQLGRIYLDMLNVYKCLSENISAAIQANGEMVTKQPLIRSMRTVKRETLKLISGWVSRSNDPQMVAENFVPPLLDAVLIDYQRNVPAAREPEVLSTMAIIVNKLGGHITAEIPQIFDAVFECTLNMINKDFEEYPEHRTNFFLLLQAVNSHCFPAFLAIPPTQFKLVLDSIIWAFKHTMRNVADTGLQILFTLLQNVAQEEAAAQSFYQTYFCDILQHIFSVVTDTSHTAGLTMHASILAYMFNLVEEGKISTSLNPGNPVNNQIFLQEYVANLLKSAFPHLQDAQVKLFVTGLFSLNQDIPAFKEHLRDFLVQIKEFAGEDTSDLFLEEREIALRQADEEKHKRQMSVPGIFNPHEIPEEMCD

The target of assay [2] is UPF2 (endogenous) (human (endogenous in C91PL)) (UniProt Q9HAU5). The experiment in a line: co-IP; C91PL cell extracts; IP with UPF2 antibody or a control antibody; western blot.
The next assay addresses T2, HA-UPF1 (UniProt Q92900).
T2 sequence: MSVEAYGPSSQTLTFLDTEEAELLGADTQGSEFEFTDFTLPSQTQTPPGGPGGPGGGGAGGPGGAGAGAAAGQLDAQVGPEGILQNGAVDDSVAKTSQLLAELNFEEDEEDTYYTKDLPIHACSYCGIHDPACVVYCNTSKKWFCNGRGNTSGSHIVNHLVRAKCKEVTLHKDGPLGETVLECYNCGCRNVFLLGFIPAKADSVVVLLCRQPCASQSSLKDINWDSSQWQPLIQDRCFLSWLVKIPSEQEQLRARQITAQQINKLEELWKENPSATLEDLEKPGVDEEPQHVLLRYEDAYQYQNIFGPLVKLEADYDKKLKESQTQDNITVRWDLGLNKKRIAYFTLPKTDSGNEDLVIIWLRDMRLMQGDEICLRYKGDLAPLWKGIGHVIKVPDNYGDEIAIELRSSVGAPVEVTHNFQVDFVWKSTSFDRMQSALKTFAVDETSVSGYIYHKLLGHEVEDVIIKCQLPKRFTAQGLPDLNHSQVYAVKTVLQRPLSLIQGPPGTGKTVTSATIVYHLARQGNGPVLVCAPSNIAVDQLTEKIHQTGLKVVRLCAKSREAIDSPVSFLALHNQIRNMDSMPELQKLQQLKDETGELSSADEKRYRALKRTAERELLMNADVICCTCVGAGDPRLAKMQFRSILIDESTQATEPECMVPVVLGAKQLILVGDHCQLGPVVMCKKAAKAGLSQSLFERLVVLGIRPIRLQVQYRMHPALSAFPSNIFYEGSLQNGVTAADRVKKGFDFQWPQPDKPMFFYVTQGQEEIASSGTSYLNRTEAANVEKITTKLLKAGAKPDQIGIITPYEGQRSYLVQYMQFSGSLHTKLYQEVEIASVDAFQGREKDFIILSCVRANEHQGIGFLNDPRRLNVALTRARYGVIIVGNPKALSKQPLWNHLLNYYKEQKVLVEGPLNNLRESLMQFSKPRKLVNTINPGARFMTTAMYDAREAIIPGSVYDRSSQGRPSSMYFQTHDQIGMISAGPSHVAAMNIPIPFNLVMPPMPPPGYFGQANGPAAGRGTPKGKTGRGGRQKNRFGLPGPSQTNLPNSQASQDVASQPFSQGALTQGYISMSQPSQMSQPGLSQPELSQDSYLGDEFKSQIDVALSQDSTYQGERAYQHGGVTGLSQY
The experiment in a line: proximity ligation; HeLa cells transiently transfected with HA-UPF1 with or without Rex; anti-HA combined with anti-CRM1 (endogenous CRM1).

In assay [3] the target is T3, HTLV-1 Rex (Rex WT, without tag) (HTLV-1) (UniProt P0C205).
T3 sequence: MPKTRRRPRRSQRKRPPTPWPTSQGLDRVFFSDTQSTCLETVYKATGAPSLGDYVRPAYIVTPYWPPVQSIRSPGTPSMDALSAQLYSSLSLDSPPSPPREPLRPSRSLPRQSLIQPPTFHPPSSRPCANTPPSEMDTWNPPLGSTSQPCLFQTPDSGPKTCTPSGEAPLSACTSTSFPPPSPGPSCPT
The experiment in a line: co-IP; 293T extracts, cells expressing combinations of Rex and an RxRE containing RNA; IP with an antibody targeting Rex; western blot. On the technique in general: Immunoblotting shows a protein as a band on a membrane.

Assay [4] has as its target T1, RNA helicase UPF1 (endogenous) (human (endogenous in 293T, Jurkat, C8166, C91PL, HUT102)). The experiment in a line: co-IP; extracts of lymphocytes (Jurkat, C8166, C91PL, HUT102); IP with rabbit polyclonal anti-UPF1; western blot.
The target of assay [5] is T4, FTSJ1 (ribosomal RNA methyltransferase 1) (human (endogenous in 293T)) (UniProt Q9UET6).
T4 sequence: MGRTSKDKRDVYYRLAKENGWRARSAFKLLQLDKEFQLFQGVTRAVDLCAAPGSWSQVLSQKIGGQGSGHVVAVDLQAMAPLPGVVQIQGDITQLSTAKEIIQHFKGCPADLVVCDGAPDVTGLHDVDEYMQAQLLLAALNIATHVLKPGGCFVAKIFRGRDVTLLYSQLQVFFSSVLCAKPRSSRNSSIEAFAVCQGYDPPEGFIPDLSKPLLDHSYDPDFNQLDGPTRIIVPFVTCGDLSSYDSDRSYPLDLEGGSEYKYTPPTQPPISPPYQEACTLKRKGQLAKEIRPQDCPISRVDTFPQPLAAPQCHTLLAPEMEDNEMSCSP
Nature of the assay: proximity ligation; 293T cells transiently transfected with HA-Rex; anti-HA combined with anti-UPF1, anti-FTSJ1 or anti-eIF5A; 40 nm resolution.

For assay [6], the target named is eIF5A (human (endogenous in 293T)) (UniProt P63241). Described as above.
For assay [7], the target named is T1, RNA helicase UPF1 (endogenous) (human (endogenous in 293T, Jurkat, C8166, C91PL, HUT102)). The description is as above.
Assay [8] deals with exportin CRM1 (XPO1), endogenous (human (endogenous in 293T, HeLa, Jurkat, C8166, C91PL, HUT102)) (UniProt O14980). Nature of the assay: co-IP; 293T extracts, cells expressing combinations of Rex and an RxRE containing RNA; IP with rabbit polyclonal anti-CRM1 or pre-immune serum; lysis buffer 50 mM Tris-Cl pH 8, 1% Triton, 200 mM KCl, 0.1 mM GTP; western blot.

Data on four molecules can be found in publication PMC12093142.

No constants are given. Whether binding was seen depends on the method and setting. In cells and extracts the contact can be indirect. Some entries that bind do so weakly or less than the wild type. For part of these data: Tags and fused reporters may be left off the sequences shown.

On to “exportin CRM1 (XPO1), endogenous (from UniProt O14980 1-1071)”, for which the binding result (in assay [1]; in assay [2]; with HA-UPF1; in [3]; in assay [4]) was “binds” each time.

B1: HA-Rex (protein, UniProt P0C205 1-189)
chain: MPKTRRRPRRSQRKRPPTPWPTSQGLDRVFFSDTQSTCLETVYKATGAPSLGDYVRPAYIVTPYWPPVQSIRSPGTPSMDALSAQLYSSLSLDSPPSPPREPLRPSRSLPRQSLIQPPTFHPPSSRPCANTPPSEMDTWNPPLGSTSQPCLFQTPDSGPKTCTPSGEAPLSACTSTSFPPPSPGPSCPT
With B1, the binding entry in assay [5] is “no binding”; in assay [6] it was “binds”; in assay [7], “binds”.

B2: HTLV-1 Rex (Rex WT, without tag) (protein, UniProt P0C205 1-189)
chain: MPKTRRRPRRSQRKRPPTPWPTSQGLDRVFFSDTQSTCLETVYKATGAPSLGDYVRPAYIVTPYWPPVQSIRSPGTPSMDALSAQLYSSLSLDSPPSPPREPLRPSRSLPRQSLIQPPTFHPPSSRPCANTPPSEMDTWNPPLGSTSQPCLFQTPDSGPKTCTPSGEAPLSACTSTSFPPPSPGPSCPT
In the case of B2, the binding entry in assay [1] and in assay [8] was “binds” throughout.

B3: HTLV-1 Rex expressed in chronically infected T cell lines (protein, UniProt P0C205 1-189)
chain: MPKTRRRPRRSQRKRPPTPWPTSQGLDRVFFSDTQSTCLETVYKATGAPSLGDYVRPAYIVTPYWPPVQSIRSPGTPSMDALSAQLYSSLSLDSPPSPPREPLRPSRSLPRQSLIQPPTFHPPSSRPCANTPPSEMDTWNPPLGSTSQPCLFQTPDSGPKTCTPSGEAPLSACTSTSFPPPSPGPSCPT
In the case of B3, the binding entry in assay [2] was “no binding”; in assay [4], “binds”.
